The values below come from article PMC4242493.

Some of the results follow. The list includes weakly bound sequences.

This assay concerns the target MaxL homodimer (UniProt P61244). Briefly: universal protein-binding microarray (PBM). The settings on record: PBS-based mixture, 10 nM His-tagged protein dimer, 2% milk, 200 ng/uL BSA, 50 ng/uL salmon testes DNA, 0.02% TX-100; detection with Alexa 488 anti-His …; high values mean tight binding; most listed sequences are background and not binding sites; double strand, one strand shown.
Chain of UniProt P61244 (P61244 whole entry): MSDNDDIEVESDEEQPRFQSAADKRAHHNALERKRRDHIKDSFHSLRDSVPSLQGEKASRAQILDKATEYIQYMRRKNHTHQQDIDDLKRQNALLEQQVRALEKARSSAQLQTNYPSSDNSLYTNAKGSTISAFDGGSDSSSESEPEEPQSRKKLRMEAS
With CTGGCGAC, the binding signal (normalized occupancy) came out at 0.0691. As for ACTCCGCG, the binding signal (normalized occupancy) stood at 0.0742.

For the sequence CGATCGCA, the binding signal (normalized occupancy) is 0.0798. As for ATATCCAC, the binding signal (normalized occupancy) worked out at 0.084.

Consider ATTTCTTG, for which the binding signal (normalized occupancy) is 0.0741. As for GGGTAATA, the figure is 0.0812. As for AGATATTG, the figure is 0.0757; as for AGTGAGAA, 0.0719; as for TGCGACCA, 0.0803. Under AAAAACGC stands 0.0702; under ACAGCGCG, 0.0842; under GGGGGTGA, 0.0836.

On to AAATCGAC, for which the binding signal (normalized occupancy) came out at 0.0703.

For AAAATAGG, the binding signal (normalized occupancy) came to 0.076.

Consider CCGCAACC, for which the binding signal (normalized occupancy) was found to be 0.0736. As to CGGTCATA, the binding signal (normalized occupancy) turned out to be 0.0757.

With AGCCTAAG, the binding signal (normalized occupancy) was 0.0763. Under AAACGGGC stands 0.0704; under CTCGATCA, 0.0807. Consider CGACCGTA, for which the binding signal (normalized occupancy) worked out at 0.073. As for ACAACAAC, the figure is 0.0714; as for GAAAGGCA, 0.0721; as for TAAGAGTA, 0.0797. Under CCTCTAAG stands 0.0744; under ACTGTATA, 0.0826. As for ACGTCACA, the figure is 0.0842. For CGACAACA, the binding signal (normalized occupancy) is 0.0842. As to AGAGTAAG, the binding signal (normalized occupancy) was determined as 0.0725. Under AACATACA stands 0.086. Under AATACAGA stands 0.0772; under AGCGGAAG, 0.0676; under CGGCCGTC, 0.0643. Regarding TCTAGAGA, the binding signal (normalized occupancy) amounted to 0.0758.

In the case of ATATCTAC, the binding signal (normalized occupancy) worked out at 0.0859. As for AGCAACAG, the figure is 0.0757; as for GAGTTATA, 0.0774. Under AGAGCACG stands 0.0859; under AGACGGTG, 0.0721. In the case of CTGGCAGA, the binding signal (normalized occupancy) stood at 0.0678. With CCAGAAGG, the binding signal (normalized occupancy) is 0.0714. As for ACTCAAGT, the figure is 0.0728. Under ACCGATTG stands 0.0737.

As to GTCCGTCA, the binding signal (normalized occupancy) was found to be 0.0716. CAGCGCAC: the binding signal (normalized occupancy) came out at 0.075. As for GATTTTCA, the figure is 0.0762; as for AAGAGTGT, 0.0784. ACAGCTCA: the binding signal (normalized occupancy) is 0.0767. Under ATTCCTAG stands 0.0726.

Consider ATTGAGTA, for which the binding signal (normalized occupancy) was found to be 0.0758.

Consider CAGGAAAG, for which the binding signal (normalized occupancy) was 0.0722.

As for ACTCTTGC, the binding signal (normalized occupancy) was 0.0761. Under ACTTTAAG stands 0.0722; under GTTCGAGA, 0.0769. Under AAACCACT stands 0.075. Regarding CGCTCAAA, the binding signal (normalized occupancy) amounted to 0.0736. Under ACATGATG stands 0.0932.

As for AATGAAGG, the binding signal (normalized occupancy) amounted to 0.0771. As for CATAGCAG, the figure is 0.0793; as for CCCCGACA, 0.0729; as for CCGGCAGG, 0.0654.

As for AAGCAGAC, the binding signal (normalized occupancy) was 0.071. As for CGTTTATC, the figure is 0.0816; as for ATCGAAAT, 0.0735; as for CTTTGGTA, 0.0682. Under AACTAAGT stands 0.077.

For the sequence GTCTCCCA, the binding signal (normalized occupancy) turned out to be 0.0745.

In the case of CGGCGTGC, the binding signal (normalized occupancy) turned out to be 0.0923. Under GAGATCAC stands 0.0846. As for CCCCTCCC, the figure is 0.0739; as for CCAAATCG, 0.0705; as for CCGGACGC, 0.0717. As for CAGCGCCC, the figure is 0.0653; as for ATGGGTTA, 0.0848; as for AGCCCCCT, 0.0762. As to AGCCAAGA, the binding signal (normalized occupancy) was determined as 0.0753.

Take GGCGTTAA: the binding signal (normalized occupancy) was found to be 0.0768. As for CCCAGTGC, the figure is 0.0744. As for AGTGTTAC, the figure is 0.0737. Under ACCTCGCT stands 0.0768; under GCACCTAA, 0.0729; under CAGTAGAC, 0.07. ACACAGTC: the binding signal (normalized occupancy) was 0.0783. As for AACTTAGG, the figure is 0.0708; as for TATCCTAA, 0.0769. Under AAGACAAG stands 0.0722. For the sequence ACCTACCC, the binding signal (normalized occupancy) worked out at 0.0757.

Regarding AGTCTCTG, the binding signal (normalized occupancy) came to 0.0686. Take ACAATTGA: the binding signal (normalized occupancy) came to 0.0762. As for AGCAATTA, the figure is 0.0722; as for TAGGCCCA, 0.0774; as for GGTAAGTA, 0.0814.

As to AAAGGTTC, the binding signal (normalized occupancy) was 0.071. Under CCGATCAA stands 0.0728; under GGATAGAA, 0.0754. As for GACTAGAA, the figure is 0.0772. As for TTCAACAA, the figure is 0.074; as for TACGTGGA, 0.0878; as for GGTTTGCA, 0.075. CGCCCCGA: the binding signal (normalized occupancy) worked out at 0.0666.

Consider CAAGCCTA, for which the binding signal (normalized occupancy) was found to be 0.073.

In the case of AAGCAATA, the binding signal (normalized occupancy) is 0.0779. Take CCGACGGA: the binding signal (normalized occupancy) is 0.0712.

Consider ACGTCTAC, for which the binding signal (normalized occupancy) stood at 0.0712. Under AAGTACGT stands 0.0761; under AGGCAGTA, 0.0728.

As for CTGCGGCC, the binding signal (normalized occupancy) came to 0.0759. Under GAATTTCA stands 0.0701; under ACTTGGAG, 0.0749; under CGATTACC, 0.0718. Under ACACACAT stands 0.0933.
